# Data as given in the supplement of paper PMC3334620.
# Over roughly 33,000 sequences, “E-score (-0.5 to 0.5)” has its median near -0.043; the highest 2% begin near 0.37. The list shows a part of the results.
# Molecular target: T1, Upc2 (UniProt Q12151)
# T1 sequence: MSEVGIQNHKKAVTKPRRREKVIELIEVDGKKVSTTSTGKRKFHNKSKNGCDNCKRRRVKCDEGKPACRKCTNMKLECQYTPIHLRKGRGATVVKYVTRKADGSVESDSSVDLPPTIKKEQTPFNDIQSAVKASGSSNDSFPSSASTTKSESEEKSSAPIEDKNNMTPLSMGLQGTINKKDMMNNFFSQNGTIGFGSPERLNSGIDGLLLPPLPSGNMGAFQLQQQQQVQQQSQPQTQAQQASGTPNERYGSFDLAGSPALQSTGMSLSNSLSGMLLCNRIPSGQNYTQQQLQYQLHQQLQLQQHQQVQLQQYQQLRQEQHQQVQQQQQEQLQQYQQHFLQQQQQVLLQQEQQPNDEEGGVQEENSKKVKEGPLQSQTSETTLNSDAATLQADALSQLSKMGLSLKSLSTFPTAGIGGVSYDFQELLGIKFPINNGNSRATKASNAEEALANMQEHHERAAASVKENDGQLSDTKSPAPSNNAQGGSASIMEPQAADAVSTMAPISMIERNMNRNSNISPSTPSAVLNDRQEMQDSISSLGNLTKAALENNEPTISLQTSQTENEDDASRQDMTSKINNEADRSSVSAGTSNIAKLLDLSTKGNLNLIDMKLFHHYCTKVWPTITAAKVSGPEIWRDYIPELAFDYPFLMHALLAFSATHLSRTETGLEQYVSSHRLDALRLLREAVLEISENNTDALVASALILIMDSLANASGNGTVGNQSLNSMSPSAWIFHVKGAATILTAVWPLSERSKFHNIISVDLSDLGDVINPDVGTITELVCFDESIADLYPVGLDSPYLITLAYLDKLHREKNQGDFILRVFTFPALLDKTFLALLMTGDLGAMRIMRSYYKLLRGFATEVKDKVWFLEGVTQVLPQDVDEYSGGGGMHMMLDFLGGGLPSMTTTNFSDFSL
# Assay: PBM E-score (8-mer binding enrichment) (E-score (-0.5 to 0.5)); higher = stronger / more preferred TF binding; most listed sequences are background and not binding sites
# Conditions: protein concentration: 200 nM; construct: GST-full length
# How it was run: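 E-scores (a modified Wilcoxon-Mann-Whitney statistic) were assigned by the Universal PBM Analysis Suite to every ungapped eight-base word pooled with its reverse complement. The input came from universal all-10-mer Agilent arrays made double-stranded by primer extension and probed with GST-tagged yeast transcription factors at about 100-200 nM. Fluorescent anti-GST detected bound protein, and masliner normalised the scans.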
row,Sequence,PBM E-score
1,CTTAAAAC,0.09
2,CATTAAAG,-0.155
3,CGCCGGCG,-0.0809
4,CGCTAGAC,-0.0752
5,ACATAGGC,-0.126
6,CCGATGTA,-0.113
7,CTTCTACC,-0.195
8,ATAGCCAC,0.0332
9,TATAGAAA,0.0668
10,AAAGTACC,0.0378
11,AGACCGTC,0.0749
12,CCTCCGCG,-0.226
13,GTTCGCAA,0.245
14,AATATCAG,-0.0672
15,ACTATAGT,0.0664
16,CTGCGGGC,-0.1
17,CTGCGGCC,0.0579
18,GTCTCGCA,0.0886
19,GAAGTACC,0.114
20,GGCCCCCC,-0.32
21,GAAATAGA,0.0708
22,CAGTCGTA,0.416
23,AAAGTTTA,0.0533
24,TAATTACA,-0.0323
25,CGGGCGCA,-0.0627

row,Sequence,PBM E-score
1,GATGAAAC,0.124
2,CAGAAACG,0.31
3,GCGTCACC,-0.0201
4,CTGAAATA,-0.141
5,AACCTTCC,-0.104
6,ATCGAAAA,0.137
7,ATCCAAAA,-0.237
8,GCTTCAGA,-0.232
9,CCATAAGA,-0.126
10,CTCATGAG,-0.0708
11,GAACTAGC,-0.0289
12,AAGGCCTG,-0.131
13,AGCGGGGC,0.072
14,AGCGAATG,0.177
15,ACCATACG,0.399
16,GGTTTACA,-0.0166
17,AAACATGC,0.0746
18,AGTAACGC,-0.125
19,ATTAGCTG,-0.0187
20,AACGTTTC,0.172
21,CAGTAAAG,-0.149
22,GGACGACA,-0.266
23,CGCAGAAA,-0.101
24,GGTAGTGA,-0.184
25,AATGAGAG,-0.196

row,Sequence,PBM E-score
1,AACACTGT,-0.037
2,ATTGGCCC,-0.354
3,CCGCGGAC,-0.334
4,AACTTAAA,0.0618
5,ATACTACA,0.0186
6,CACCAGCG,-0.0473
7,AAATTTCG,0.205
8,AGCAGCCT,-0.108
9,CCGTAAAA,0.374
10,GGGTAAAA,-0.00698
11,GACGGAAA,0.0904
12,CTTGCCCA,-0.115
13,AGTCAGTG,-0.122
14,AGGAAACC,-0.079
15,ACACGGGG,-0.0346
16,CACCAACG,0.029
17,AAAGCTAC,-0.074
18,CTCCTCTA,-0.18
19,TCGTCTCA,0.119
20,GCATTCGA,0.0425
21,CCCCCGCG,-0.0395
22,CAGCAAAA,0.0394
23,CTCTTACC,0.174
24,CAGTGGTA,-0.0555
25,CCCCGAAC,0.107

row,Sequence,PBM E-score
1,AAGACAGT,-0.202
2,AGTAGAAG,-0.15
3,ACAGGGGC,-0.131
4,ACTAGGAT,0.0285
5,CCCGTACC,0.383
6,GCACCCAC,0.0871
7,AATCTGGG,-0.202
8,ATAAGCGG,-0.0234
9,AAGGGGAA,-0.236
10,AGCTAGGA,-0.232
11,AACAGACT,-0.126
12,GTGGATTA,-0.149
13,AGCAGGAC,-0.0905
14,CACTCAGA,-0.0962
15,AAACTGAG,-0.0946
16,AACGATCA,0.379
17,CAGTTAGC,-0.269
18,GTGGCCGA,-0.162
19,AAACTCGT,0.327
20,CCCTTCAA,-0.107
21,ACTCGAGC,-0.0784
22,TAGGAGAA,-0.184
23,AAATCGGT,0.0318
24,AGTATTTC,-0.0348
25,GATTCTCC,-0.104

row,Sequence,PBM E-score
1,TATGTGGA,0.0189
2,ATGACCGG,-0.124
3,CCCCTGAC,-0.288
4,CAAGTACC,0.0185
5,ACGGAGTG,0.243
6,AGCGCCAT,-0.167
7,AGATCCCT,-0.0228
8,AACTCTAG,-0.0752
9,AGGTCGGC,-0.241
10,CTCCTCGC,0.0295
11,AGCCGCTC,0.0179
12,ATATGCGG,0.112
13,CTGCTAAC,-0.228
14,ACCACACC,-0.185
15,AAGGAGGT,-0.0817
16,GGGACCCC,-0.292
17,AGCCGCTG,-0.194
18,ACCCGTGA,-0.0228
19,CACCTTCA,-0.254
20,CCTGTCGA,-0.205
21,CTGGTAAC,0.0344
22,ACCATCCC,-0.222
23,CTTCCCTA,-0.306
24,ACTCCAAA,-0.141
25,AGTTGCCA,-0.182

row,Sequence,PBM E-score
1,TGCGAACA,0.0931
2,GGGGAAGA,-0.193
3,ATCGCTAG,-0.0468
4,AAAATGAG,-0.162
5,CACAGGGG,-0.0559
6,CACTGTGC,-0.118
7,AATGACGG,-0.163
8,ACATTGAG,-0.235
9,GACTTAGA,0.0575
10,TTACATAA,0.0703
11,CACCCTTC,-0.0111
12,TCCGCGGA,-0.0509
13,CAACAAAA,0.0632
14,CTCCGGAG,-0.132
15,ACTCTATG,-0.0145
16,ACGGTCAG,-0.0706
17,AGGAAACG,0.289
18,CCCGTAAC,0.248
19,TGAGGCAA,0.00813
20,CACTTGCA,-0.216
21,CAAGGCGA,-0.117
22,GGTGAGAA,-0.233
23,ACTCGATC,-0.0825
24,ACTGTGAA,0.062
25,ATGCTATC,0.0893

row,Sequence,PBM E-score
1,CTAAGTGA,-0.0744
2,CAGTTACG,0.161
3,TCCAGAAA,-0.147
4,CGACCCAA,0.128
5,GAATTGTC,-0.144
6,ATCTGAGG,-0.195
7,CTCCCGCC,-0.238
8,AGCAGAGG,-0.293
9,ACGTTCTC,0.124
10,ATACCCGA,0.223
11,AGAGTAGG,-0.156
12,ACTCTTGC,-0.207
13,CGCTTCAC,-0.0342
14,GGGGAACA,-0.151
15,AGCAGTAA,-0.146
16,AGTCAAAT,-0.257
17,ATGATAGG,-0.322
18,AGGGTCCA,-0.192
19,GCATACGC,0.296
20,CCTCGCAA,0.117
21,GCGCGCCA,0.0851
22,ACATCTAA,-0.0123
